The source of these data is PubChem BioAssay (NCI).

More than one record can exist for a structure, and the calls need not agree.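 Method: cells in 96-well plates; compound added at one concentration; 48 h incubation; percent growth measured; values under 10 scored active.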 The source holds more than one record for some entries. This list holds those alone. The source may hold further records. This drug was run again and again over the years, at the concentration stated with the values; each value is one run. Additions like (4×) give the number of equal values in this list.

This assay relates to HL-60(TB) leukemia. The assay can be described thus: NCI-60 one-dose screen, 48 h (100 = growth as untreated, 0 = no growth, -100 = all killed). The following applies: 2.5 mM.

Take `O=c1[nH]cc(F)c(=O)[nH]1`: the growth result is, setting by setting: (runs of 1991) “inactive: 13.7, 23.8, 20.9, 13.4, 55.6, 22.7, 11.1 (2×), 11.9, 40.4, 27.1% and active: 8.86, -4.67, -6.35, 6.68, 6.27, 9.78%”; (runs of 1992) “inactive: 27.9, 14 (3×), 12.8, 15.6, 15.8, 25.6, 28.8, 17.3, 11.8 (2×), 39.6, 21.9, 37.7, 18.2 (2×), 16.9, 10.5 (2×), 13.9, 21, 11.6, 19.4 (2×), 33.5, 20.8, 16.5 (2×), 19.8 (2×), 22.1, 30.1, 16.2, 15.9, 13.7, 21.1, 19.3, 21.6 (2×), 14.7, 13.6, 17.8, 20.1, 10.8 (2×), 23.1, 11.3, 18.9, 33, 12.4, 55.9, 20.9, 43.6, 10.7, 11.2, 20.3% and active: 2.73, -7.96, 5.31 (2×), 7.3, 7.75, -10.5 (2×), 4.39, -2.87, 1.87, -9.59, 6.25, -9.65, 0.918, 0.204, 0.046, 7.06, -11.2, 8.99, -13.3, 8.84, 4.56, -6.35, 2.48, 4.06, 8.13, -8.41, 5.18, 7.84, 1.01, 6.4, 7.29, 6.73, 4.42, 6.15, -0.21, 2.05, 3.58, 7.35, -10.1, -77.6, 6.87, -2.1, 9.5, 5.7, 5.78, 5.76, 6.01, 7.62, -1.39, -11.5, 8.11, 5.28, 4.03, 9.71, 5.8, 8.76, 3.15%”; (runs of 1993) “inactive: 17.5, 13.5, 59.3, 25.5, 11.7, 28.2, 11.6, 16.7, 17.9, 36.8, 10.9, 47.7, 32.8, 16, 41.5, 92.3, 27.2, 87.1, 38.5, 10.3, 18.7, 15.2, 12.5% and active: 4.34, 3.7, 9.13, 7.01, 9.63, -33.9, -10.9, 4.92, 5.29, 4.66, -1.54, 4.07, -44.3, 3.64, -12.2, 4.76, -18.8, 9.4, 9.41, 0.702, -0.162, -20.2, -17.7, 0.868, -17.9, 2.96%”; (runs of 1994) “inactive: 33.9, 10.7, 12.6, 42.5, 25.7, 95.3, 65.8, 13.4, 10.1 (2×), 15.6, 43.5, 10, 22.2, 14.8, 13.3, 25.3, 22.8% and active: -17.7, 4.69, -2.61, 6.79, -27.3, 9.51, -14.6, -11.4, 8.18, -11.3, 2.56, 3.34, -10.4%”; (runs of 1995) “active: 8.89, 8.32, -1.01, -16.7, -11.3, 8.4, 2.58, -6.78, -6.12, -15, -24, -7.51, 8.67, -22.7, -51.4, 9.01, 4.37, 5.06, -44.1, -25.1, -20.3, 8.95, 7.2, -31, -18.8, 5.59, -48.6, -15.2% and inactive: 20.4, 16.5, 15.9, 40.4, 21.8, 10, 14.5%”; (runs of 1996) “inactive: 22.9, 54, 13.9, 13.2, 71.8, 12, 16.1% and active: -50.8, 2.43, -18.6, -5.51, 2.76, -19.9, 1.39, -29.8, -24.2, -54.7, -24, -19.1, -23, -46.9, 6.38, -20.1, 6.28, -29.2, 6.61, -43.6, -40.5, -23.2, -10.5, -23.1, -8.28, 1.52, 0.777, -74.6%”. In addition, the growth entry reads like this: (runs of 1997) “active: -22.7, 1.22, -33.8, -3.6, 6.24, 6.03, -56.8, 3.43, 8.27, 7.36, 0.952, 9.67, -55.7% and inactive: 10.8, 10.3, 37.1, 10.5, 15.8, 34.1, 16.5, 19.5, 23.4, 35.4, 24.9, 44.9, 20.6, 16.6%”; (runs of 1998) “active: 6.88, -24.2, -15.8, -1.04, -16.5, -2.85, -8.97% and inactive: 72.7, 22.8, 49.3, 41.9, 28.3 (2×), 28.1, 18.3, 90.2, 62.4, 14.3, 40.4%”; (runs of 1999) “inactive: 27.7, 18.4, 10.5, 21.6, 13.7% and active: 2.85, -44.1, -32.7, -4.13, -79.6, -29.3, 0.026, -8.33, -73.6, 2.35, -49.9, 1.74%”; (runs of 2000) “active: -34.1, -24.4, 4.57, -43.6%”.
